The full ranking holds about 2,300 sequences; the median of “median log2 fold change of GCK-ALFA target abundance (FLAG IP / Myc IP barcode read proportion)” is about 0.095, and the lowest 2% start at about -0.47. Some of the results follow.
B1: LC3A_45_1968 (protein)
chain: MAKATIDMLVPREKAEEVLEAIREAAAELEAESGGALKFDFETLDASYEATKNEEDVYLELDIYAPTKEQALDAADRLVDRVEERLGEKVAAIISVEEIP
B2: LC3A_45_1940 (protein)
chain: MWRATVDIGVPRELAEEARAAALEAMDEIEAEGGPEVRVNRAALDESYEATKDEETVLLVVEIYAPDRETALRYADRLVDYLRERLGPAVAAIISLEELP
B3: LC3A_132_327 (protein)
chain: EEEKYEKLNAEITALLDEALANVDDLEKVEKLFDETEKLLKEAEKEISPEKAAELYNKAADKYDEVADKAAEAGQEDVEALASGKSVEAEARAIRAEEKI
B4: LC3A_3_1403 (protein)
chain: FEEIKKETIEYLKKIGRSEEVIKAAKKLLDALAKKGWEKAAKTFLEELKKLKDVSDELLLDFLEEALAFVESYDGDEEEAVKKIKELAKVTLNESEIIEL
B5: LC3A_28_1272 (protein)
chain: SAIDASIAAALAAAEEAKARGEPAVITITVDGNATQEDIDKVIAAIEEIAELLKDVPDQAIVVNVDAGVAQENIDKLADAAEEIEEKYPNVTVILALDED
B6: LC3A_3_1631 (protein)
chain: MEERLEEALEELRAAGASEETLEAFRETAEALIERGFYEAAETLIEETRELAGLPSELLLDFLEDVLEYVKTNDADEEEVIEYIKETARTTRSEAEIEEL
B7: LC3A_free_39_2281 (protein)
chain: SSSMAEEARARFLALAESASPETRELLLRLLEIFKDDPEAVRRIVEALERAREEGADMLRIARRALEVAEELKERGESLEEIAEAVVETIEDEINLQPID
B8: LC3A_28_787 (protein)
chain: SELKKNADAALEEAKKAAAEGISTVITIKVTGDATQEDIDYVIKKMKEIAEVLKDIENQAIIIDVSKDVSQEHLDKLMKAAEEIEKKYPNVTVIIALEEK

The binders below were run against MAP1LC3A, Q9H492 (assay: median log2 fold change of GCK-ALFA target abundance (FLAG IP / Myc IP barcode read proportion) (log2 ratio); each designed protein is fused to an ALFA-tag nanobody in HEK293 cells to bring the named protein to FLAG-tagged glucokinase (GCK); Myc marks an untargeted standard; higher = target protein stabilised (more abundant)). Conditions: target protein: 3xFLAG-MCP-GCK-ALFA reporter; HEK293 landing pad (RPLP).
How it was run: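 Sequencing of reverse-transcribed, amplified circular RNA barcodes from anti-FLAG and anti-Myc immunoprecipitates provided the readout for an ALFA-nanobody-fused binder library recombined into HEK293 landing-pad cells. Those cells were induced with 2 μg mL^−1 doxycycline, transfected with a plasmid expressing a FLAG-tagged target and a Myc-tagged standard, and lysed after 48 h. Target abundance is the per-binder median log2 ratio of FLAG to Myc barcode read proportions. Only barcodes at a proportion of ≥10^−7 in both replicates and binders with ≥3 barcodes per replicate were kept, with a 10^−6 pseudocount added before the two replicates were pooled.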
In the case of B1, the “median log2 fold change” value is reported as -0.116.
B2 was tested, and the “median log2 fold change” value was 0.162.
With B3 the “median log2 fold change” value was 0.348.
With B4 the “median log2 fold change” value was 0.24.
B5 was tested, and the “median log2 fold change” value was 0.0796.
In the case of B6, the “median log2 fold change” value is reported as -0.0743.
For B7, the “median log2 fold change” value was 0.13.
With B8 the “median log2 fold change” value was 0.115.

Source: the supplement of paper PMC12632987
